# Laboratory results reported in the supplement of paper PMC8728848.
# The other results are listed elsewhere or left out.
# What was measured:
# Experiment in all cases: glycan array binding signal (z-score within array); higher = stronger binding
# Conditions in all cases: glycan notation: IUPAC condensed, linker removed
# [1] = target: Neu5Ac(a2-6)Gal(b1-4)GlcNAc(b1-3)Gal(b1-4)GlcNAc(b1-3)GalNAc
# How it was run: (§1)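 The Consortium for Functional Glycomics database supplied 3228 glycan arrays, of which those lacking an available protein sequence were dropped. The binding signal, a within-array Z-score, was averaged across arrays of the same protein sequence and across linkers. Negative scores can be read as non-binding.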
# [2] = target: Neu5Ac(a2-6)Gal(b1-4)GlcNAc(b1-3)Gal(b1-4)GlcNAc(b1-3)[Neu5Ac(a2-6)Gal(b1-4)GlcNAc(b1-3)Gal(b1-4)GlcNAc(b1-6)]GalNAc
# How it was run: as §1
# [3] = target: Neu5Ac(a2-6)Gal(b1-4)GlcNAc(b1-3)Gal(b1-4)GlcNAc(b1-6)[Gal(b1-3)]GalNAc
# How it was run: as §1
# [4] = target: Neu5Ac(a2-6)Gal(b1-4)GlcNAc(b1-3)Gal(b1-4)[Fuc(a1-3)]GlcNAc(b1-3)Gal(b1-4)[Fuc(a1-3)]GlcNAc
# How it was run: as §1
# [5] = target: Neu5Ac(a2-6)Gal(b1-4)GlcNAc(b1-3)GalNAc
# How it was run: as §1
# [6] = target: Neu5Ac(a2-6)Gal(b1-4)GlcNAc(b1-3)[Neu5Ac(a2-6)Gal(b1-4)GlcNAc(b1-6)]GalNAc
# How it was run: as §1
# [7] = target: Neu5Ac(a2-6)Gal(b1-4)GlcNAc(b1-6)GalNAc
# How it was run: as §1
# [8] = target: Neu5Ac(a2-6)Gal(b1-4)GlcNAc(b1-6)[Gal(b1-3)GlcNAc(b1-3)]Gal(b1-4)Glc
# How it was run: as §1
# [9] = target: Neu5Ac(a2-6)Gal(b1-4)GlcNAc(b1-6)[Gal(b1-3)]GalNAc
# How it was run: as §1
# [10] = target: Neu5Ac(a2-6)Gal(b1-4)GlcNAc6S
# How it was run: as §1
# [11] = target: Neu5Ac(a2-6)GalNAc
# How it was run: as §1
# [12] = target: Neu5Ac(a2-6)GalNAc(b1-4)GlcNAc
# How it was run: as §1
# [13] = target: Neu5Ac(a2-6)GalNAc(b1-4)GlcNAc6S
# How it was run: as §1
# [14] = target: Neu5Ac(a2-6)GlcNAc(b1-4)GlcNAc
# How it was run: as §1
# [15] = target: Neu5Ac(a2-6)GlcNAc(b1-4)GlcNAc(b1-4)GlcNAc
# How it was run: as §1
# [16] = target: Neu5Ac(a2-8)Neu5Ac
# How it was run: as §1
# [17] = target: Neu5Ac(a2-8)Neu5Ac(a2-3)Gal(b1-3)GalNAc(b1-4)[Neu5Ac(a2-3)]Gal(b1-4)Glc
# How it was run: as §1
# [18] = target: Neu5Ac(a2-8)Neu5Ac(a2-3)Gal(b1-3)GalNAc(b1-4)[Neu5Ac(a2-8)Neu5Ac(a2-3)]Gal(b1-4)Glc
# How it was run: as §1
# [19] = target: Neu5Ac(a2-8)Neu5Ac(a2-3)Gal(b1-4)Glc
# How it was run: as §1
# [20] = target: Neu5Ac(a2-8)Neu5Ac(a2-3)Gal(b1-4)GlcNAc
# How it was run: as §1
# [21] = target: Neu5Ac(a2-8)Neu5Ac(a2-3)[Gal(b1-3)GalNAc(b1-4)]Gal(b1-4)Glc
# How it was run: as §1
# [22] = target: Neu5Ac(a2-8)Neu5Ac(a2-3)[GalNAc(b1-4)]Gal(b1-4)Glc
# How it was run: as §1
# [23] = target: Neu5Ac(a2-8)Neu5Ac(a2-8)Neu5Ac
# How it was run: as §1
# [24] = target: Neu5Ac(a2-8)Neu5Ac(a2-8)Neu5Ac(a2-3)Gal(b1-4)Glc
# How it was run: as §1
# [25] = target: Neu5Ac(a2-8)Neu5Ac(a2-8)Neu5Ac(a2-3)[Gal(b1-3)GalNAc(b1-4)]Gal(b1-4)Glc
# How it was run: as §1
# [26] = target: Neu5Ac(a2-8)Neu5Ac(a2-8)Neu5Ac(a2-3)[GalNAc(b1-4)]Gal(b1-4)Glc
# How it was run: as §1
# [27] = target: Neu5Ac(a2-8)Neu5Ac(a2-8)Neu5Ac(a2-8)Neu5Ac(a2-3)[GalNAc(b1-4)]Gal(b1-4)Glc
# How it was run: as §1
# [28] = target: Neu5Ac(a2-8)Neu5Gc(a2-3)Gal(b1-4)GlcNAc
# How it was run: as §1
# [29] = target: Neu5Ac(b2-6)Gal(b1-4)GlcNAc
# How it was run: as §1
# [30] = target: Neu5Ac(b2-6)GalNAc
# How it was run: as §1
# [31] = target: Neu5Ac9Ac(a2-3)Gal(b1-3)GlcNAc
# How it was run: as §1
# [32] = target: Neu5Ac9Ac(a2-3)Gal(b1-4)GlcNAc
# How it was run: as §1
# [33] = target: Neu5Ac9Ac(a2-6)Gal(b1-4)GlcNAc
# How it was run: as §1
# [34] = target: Neu5Gc(a2-3)Gal(b1-3)GlcNAc
# How it was run: as §1
# [35] = target: Neu5Gc(a2-3)Gal(b1-3)[Fuc(a1-4)]GlcNAc
# How it was run: as §1
# [36] = target: Neu5Gc(a2-3)Gal(b1-4)Glc
# How it was run: as §1
# [37] = target: Neu5Gc(a2-3)Gal(b1-4)GlcNAc
# How it was run: as §1
# [38] = target: Neu5Gc(a2-3)Gal(b1-4)GlcNAc(b1-3)Gal(b1-4)GlcNAc(b1-2)Man(a1-3)[Neu5Gc(a2-3)Gal(b1-4)GlcNAc(b1-3)Gal(b1-4)GlcNAc(b1-2)Man(a1-6)]Man(b1-4)GlcNAc(b1-4)GlcNAc
# How it was run: as §1
# [39] = target: Neu5Gc(a2-3)Gal(b1-4)[Fuc(a1-3)]GlcNAc
# How it was run: as §1
# [40] = target: Neu5Gc(a2-6)Gal(b1-4)GlcNAc
# How it was run: as §1
# [41] = target: Neu5Gc(a2-6)GalNAc
# How it was run: as §1
# [42] = target: Neu5Gc(a2-8)Neu5Ac(a2-3)Gal(b1-4)GlcNAc
# How it was run: as §1
# [43] = target: Neu5Gc(a2-8)Neu5Gc(a2-3)Gal(b1-4)GlcNAc
# How it was run: as §1
# [44] = target: Neu5Gc(a2-8)Neu5Gc(a2-3)Gal(b1-4)GlcNAc(b1-3)Gal(b1-4)GlcNAc
# How it was run: as §1
# [45] = target: Neu5Gc(a2-8)Neu5Gc(a2-6)Gal(b1-4)GlcNAc
# How it was run: as §1
# [46] = target: Neu5Gc(b2-6)Gal(b1-4)GlcNAc
# How it was run: as §1
binder,measurement,setting,value
BT3172pd (Bacteroides thetaiotaomicron) (protein) MLPLRAEHYYYKQISLKEGLPSNVRCILRDEQGFIWIGTKAGLGKFDGHQLKRYKHQANDPHSLLHNLIYQIAEDKQHNIWILTEKGIARYQQQSNNFTFPTDEEGNYITAYSFCLVPDGILFGGKDRIYKYSYKDSSLRLLQYFNANSFKITALSVWDSKTLLCCSRWTGLYLVDLQTGEHRRPPFDCGPEITSMITDSKNRIWIAPYSGGLRCYSRDGKLSASYTTHNSSLSNDIVLSLAEREEQLWIGTDGGGINILHPETGEISQLEYIPGRENYSLPANSILCLHNDYNNNVWAGSTCNGLISIREVSMKTYTDVVPGNDRGLSNGTVRSLYRQSPDSIWIGTDGGGINLFSPHTEKFTHYSSTWGDKVAFISGFTPGKLLISLFSKGVFVFNPATGEKQPFTIIDKETTTRLCNRGKSVNLYQNTPNTVLFLGDHIYQYHLKEKKFSTITEEEGKDIVGTLVPFDHQENLTYINDIKHIYELDDQTSRLKTVFECYTDTVISSVSHDEQGHFWIGSNFGLIHYDPVLKSRTLVPTNLFTEINMVLCDQKGKVWIGVDNMLFAYFIKEQKFVLFGESNGAIQNEYLPNARLVNEQGDAYIGGVKGMLRIDGQLLLNTSEMPELQLLDITINGESANHEWYNHPAKISVPWNSNISIRIMSREEDIFRQKIYRYQIEGLNNEYTESYNPELVIRSLLPGSYRIMASCTAKDGSWIPDQQVLELTVLPPWYRTHHHHHH,glycan array binding signal (z-score),[1],-0.27
same,glycan array binding signal (z-score),[2],0.33
same,glycan array binding signal (z-score),[3],6.02
same,glycan array binding signal (z-score),[4],-0.079
same,glycan array binding signal (z-score),[5],0.187
same,glycan array binding signal (z-score),[6],5.76
same,glycan array binding signal (z-score),[7],0.094
same,glycan array binding signal (z-score),[8],-0.495
same,glycan array binding signal (z-score),[9],1.55
same,glycan array binding signal (z-score),[10],-0.449
same,glycan array binding signal (z-score),[11],0.143
same,glycan array binding signal (z-score),[12],0.093
same,glycan array binding signal (z-score),[13],0.158
same,glycan array binding signal (z-score),[14],0.054
same,glycan array binding signal (z-score),[15],-0.302
same,glycan array binding signal (z-score),[16],0.482
same,glycan array binding signal (z-score),[17],-0.117
same,glycan array binding signal (z-score),[18],0.261
same,glycan array binding signal (z-score),[19],0.188
same,glycan array binding signal (z-score),[20],-0.788
same,glycan array binding signal (z-score),[21],-0.415
same,glycan array binding signal (z-score),[22],-0.552
same,glycan array binding signal (z-score),[23],0.136
same,glycan array binding signal (z-score),[24],-0.434
same,glycan array binding signal (z-score),[25],-0.223
same,glycan array binding signal (z-score),[26],-0.591
same,glycan array binding signal (z-score),[27],-0.918
same,glycan array binding signal (z-score),[28],0.121
same,glycan array binding signal (z-score),[29],-1.02
same,glycan array binding signal (z-score),[30],0.736
same,glycan array binding signal (z-score),[31],-0.414
same,glycan array binding signal (z-score),[32],-0.598
same,glycan array binding signal (z-score),[33],-0.178
same,glycan array binding signal (z-score),[34],-0.493
same,glycan array binding signal (z-score),[35],0.1
same,glycan array binding signal (z-score),[36],-0.286
same,glycan array binding signal (z-score),[37],-0.212
same,glycan array binding signal (z-score),[38],-0.18
same,glycan array binding signal (z-score),[39],-0.183
same,glycan array binding signal (z-score),[40],0.172
same,glycan array binding signal (z-score),[41],-0.106
same,glycan array binding signal (z-score),[42],-0.537
same,glycan array binding signal (z-score),[43],-0.391
same,glycan array binding signal (z-score),[44],-0.102
same,glycan array binding signal (z-score),[45],-0.966
same,glycan array binding signal (z-score),[46],1.33
